Key:
Experiment in all cases: minimum inhibitory concentration
Ampicillin = compound: CC1(C)S[C@@H]2[C@H](NC(=O)[C@H](N)c3ccccc3)C(=O)N2[C@H]1C(=O)O [Ampicillin]
Procedure: (§1)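 Broth microdilution MIC per ISO 10932 on precoated VetMIC Lact-1 plates (tylosin, vancomycin and ampicillin plates prepared manually) against lactic acid bacteria and bifidobacteria isolates. Plates were read visually after 48 h anaerobic incubation (bifidobacteria 72 h; enterococci and staphylococci 24 h aerobic) at species-specific temperatures of 30 or 37 °C. Values prefixed with < or > are outside the tested dilution range.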

Neomycin = compound: NC[C@@H]1O[C@H](O[C@H]2[C@@H](O)[C@H](O[C@@H]3[C@@H](O)[C@H](N)C[C@H](N)[C@H]3O[C@H]3O[C@H](CN)[C@@H](O)[C@H](O)[C@H]3N)O[C@@H]2CO)[C@H](N)[C@@H](O)[C@@H]1O [Neomycin]
Procedure: as §1

Erythromycin = compound: CC[C@H]1OC(=O)[C@H](C)[C@@H](O[C@H]2C[C@@](C)(OC)[C@@H](O)[C@H](C)O2)[C@H](C)[C@@H](O[C@@H]2O[C@H](C)C[C@H](N(C)C)[C@H]2O)[C@](C)(O)C[C@@H](C)C(=O)[C@H](C)[C@@H](O)[C@]1(C)O [Erythromycin]
Procedure: as §1

Vancomycin = compound: CN[C@H](CC(C)C)C(=O)N[C@H]1C(=O)N[C@@H](CC(N)=O)C(=O)N[C@H]2C(=O)N[C@H]3C(=O)N[C@H](C(=O)N[C@H](C(=O)O)c4cc(O)cc(O)c4-c4cc3ccc4O)[C@H](O)c3ccc(c(Cl)c3)Oc3cc2cc(c3O[C@@H]2O[C@H](CO)[C@@H](O)[C@H](O)[C@H]2O[C@H]2C[C@](C)(N)[C@H](O)[C@H](C)O2)Oc2ccc(cc2Cl)[C@H]1O [Vancomycin]
Procedure: as §1

Kanamycin = compound: NC[C@H]1O[C@H](O[C@H]2[C@H](O)[C@@H](O[C@H]3O[C@H](CO)[C@@H](O)[C@H](N)[C@H]3O)[C@H](N)C[C@@H]2N)[C@H](O)[C@@H](O)[C@@H]1O [Kanamycin]
Procedure: as §1

Streptomycin = compound: CN[C@@H]1[C@H](O[C@H]2[C@H](O[C@H]3[C@H](O)[C@@H](O)[C@H](N=C(N)N)[C@@H](O)[C@@H]3N=C(N)N)O[C@@H](C)[C@]2(O)C=O)O[C@@H](CO)[C@H](O)[C@H]1O [Streptomycin]
Procedure: as §1

Tetracycline = compound: CN(C)[C@@H]1C(O)=C(C(N)=O)C(=O)[C@@]2(O)C(O)=C3C(=O)c4c(O)cccc4[C@@](C)(O)[C@H]3C[C@@H]12 [Tetracycline]
Procedure: as §1

Chloramphenicol = compound: O=C(N[C@H](CO)[C@H](O)c1ccc([N+](=O)[O-])cc1)C(Cl)Cl [Chloramphenicol]
Procedure: as §1

Clindamycin = compound: CCC[C@@H]1C[C@@H](C(=O)N[C@@H]([C@H]2O[C@H](SC)[C@H](O)[C@@H](O)[C@H]2O)[C@H](C)Cl)N(C)C1 [Clindamycin]
Procedure: as §1

Gentamicin = compound: CNC(C)C1CCC(N)C(OC2C(N)CC(N)C(OC3OCC(C)(O)C(NC)C3O)C2O)O1 [Gentamicin]
Procedure: as §1
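Also: isolates derived from commercial starter, protective, probiotic or feed-additive cultures, from fermented products, from human gut mucosa or feces, and from human milk or colostrum.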

## Lactiplantibacillus plantarum IM1469 (strain group: starter cultures)
Ampicillin
  minimum inhibitory concentration: 4 µg/mL
Neomycin
  minimum inhibitory concentration: 32 µg/mL
Erythromycin
  minimum inhibitory concentration: 0.5 µg/mL
Vancomycin
  minimum inhibitory concentration: > 128 µg/mL
Kanamycin
  minimum inhibitory concentration: 128 µg/mL
Streptomycin
  minimum inhibitory concentration: 64 µg/mL
Tetracycline
  minimum inhibitory concentration: 16 µg/mL
Chloramphenicol
  minimum inhibitory concentration: 8 µg/mL
Clindamycin
  minimum inhibitory concentration: 0.06 µg/mL
Gentamicin
  minimum inhibitory concentration: 8 µg/mL

## Lactiplantibacillus plantarum IM1472 (strain group: starter cultures)
Ampicillin
  minimum inhibitory concentration: 2 µg/mL
Neomycin
  minimum inhibitory concentration: 4 µg/mL
Erythromycin
  minimum inhibitory concentration: 0.5 µg/mL
Vancomycin
  minimum inhibitory concentration: > 128 µg/mL
Kanamycin
  minimum inhibitory concentration: 128 µg/mL
Streptomycin
  minimum inhibitory concentration: 64 µg/mL
Tetracycline
  minimum inhibitory concentration: 16 µg/mL
Chloramphenicol
  minimum inhibitory concentration: 8 µg/mL
Clindamycin
  minimum inhibitory concentration: 0.06 µg/mL
Gentamicin
  minimum inhibitory concentration: 4 µg/mL

## Lactobacillus acidophilus IM304 (strain group: probiotic strains)
Ampicillin
  minimum inhibitory concentration: 1 µg/mL
Neomycin
  minimum inhibitory concentration: 8 µg/mL
Erythromycin
  minimum inhibitory concentration: 0.25 µg/mL
Vancomycin
  minimum inhibitory concentration: 0.5 µg/mL
Kanamycin
  minimum inhibitory concentration: 32 µg/mL
Streptomycin
  minimum inhibitory concentration: 4 µg/mL
Tetracycline
  minimum inhibitory concentration: 0.25 µg/mL
Chloramphenicol
  minimum inhibitory concentration: 4 µg/mL
Clindamycin
  minimum inhibitory concentration: 1 µg/mL
Gentamicin
  minimum inhibitory concentration: 4 µg/mL

## Lactobacillus acidophilus IM552 (strain group: probiotic strains)
Ampicillin
  minimum inhibitory concentration: 1 µg/mL
Neomycin
  minimum inhibitory concentration: 4 µg/mL
Erythromycin
  minimum inhibitory concentration: 0.12 µg/mL
Vancomycin
  minimum inhibitory concentration: 0.5 µg/mL
Kanamycin
  minimum inhibitory concentration: 64 µg/mL
Streptomycin
  minimum inhibitory concentration: 4 µg/mL
Tetracycline
  minimum inhibitory concentration: 1 µg/mL
Chloramphenicol
  minimum inhibitory concentration: 4 µg/mL
Clindamycin
  minimum inhibitory concentration: 1 µg/mL
Gentamicin
  minimum inhibitory concentration: 4 µg/mL

## Lactobacillus acidophilus IM808 (strain group: probiotic strains)
Ampicillin
  minimum inhibitory concentration: < 0.032 µg/mL
Neomycin
  minimum inhibitory concentration: 2 µg/mL
Erythromycin
  minimum inhibitory concentration: 0.5 µg/mL
Vancomycin
  minimum inhibitory concentration: 0.5 µg/mL
Kanamycin
  minimum inhibitory concentration: 4 µg/mL
Streptomycin
  minimum inhibitory concentration: < 0.5 µg/mL
Tetracycline
  minimum inhibitory concentration: 0.5 µg/mL
Chloramphenicol
  minimum inhibitory concentration: 4 µg/mL
Clindamycin
  minimum inhibitory concentration: 1 µg/mL
Gentamicin
  minimum inhibitory concentration: < 0.5 µg/mL

## Lactobacillus acidophilus IM1074 (strain group: non-starter strains)
Ampicillin
  minimum inhibitory concentration: 0.5 µg/mL
Neomycin
  minimum inhibitory concentration: 4 µg/mL
Erythromycin
  minimum inhibitory concentration: 0.12 µg/mL
Vancomycin
  minimum inhibitory concentration: 2 µg/mL
Kanamycin
  minimum inhibitory concentration: 64 µg/mL
Streptomycin
  minimum inhibitory concentration: 4 µg/mL
Tetracycline
  minimum inhibitory concentration: 0.5 µg/mL
Chloramphenicol
  minimum inhibitory concentration: 4 µg/mL
Clindamycin
  minimum inhibitory concentration: 1 µg/mL
Gentamicin
  minimum inhibitory concentration: 4 µg/mL

## Lactobacillus acidophilus IM1383 (strain group: probiotic strains)
Ampicillin
  minimum inhibitory concentration: 1 µg/mL
Neomycin
  minimum inhibitory concentration: 8 µg/mL
Erythromycin
  minimum inhibitory concentration: 0.12 µg/mL
Vancomycin
  minimum inhibitory concentration: 1 µg/mL
Kanamycin
  minimum inhibitory concentration: 64 µg/mL
Streptomycin
  minimum inhibitory concentration: 4 µg/mL
Tetracycline
  minimum inhibitory concentration: 0.25 µg/mL
Chloramphenicol
  minimum inhibitory concentration: 4 µg/mL
Clindamycin
  minimum inhibitory concentration: 1 µg/mL
Gentamicin
  minimum inhibitory concentration: 4 µg/mL

## Lactobacillus acidophilus IM1385 (strain group: probiotic strains)
Ampicillin
  minimum inhibitory concentration: 1 µg/mL
Neomycin
  minimum inhibitory concentration: 4 µg/mL
Erythromycin
  minimum inhibitory concentration: 0.12 µg/mL
Vancomycin
  minimum inhibitory concentration: 0.5 µg/mL
Kanamycin
  minimum inhibitory concentration: 32 µg/mL
Streptomycin
  minimum inhibitory concentration: 4 µg/mL
Tetracycline
  minimum inhibitory concentration: 0.5 µg/mL
Chloramphenicol
  minimum inhibitory concentration: 4 µg/mL
Clindamycin
  minimum inhibitory concentration: 0.5 µg/mL
Gentamicin
  minimum inhibitory concentration: 2 µg/mL

## Lactobacillus acidophilus IM1406 (strain group: starter cultures)
Ampicillin
  minimum inhibitory concentration: 1 µg/mL
Neomycin
  minimum inhibitory concentration: 2 µg/mL
Erythromycin
  minimum inhibitory concentration: 0.12 µg/mL
Vancomycin
  minimum inhibitory concentration: 1 µg/mL
Kanamycin
  minimum inhibitory concentration: 32 µg/mL
Streptomycin
  minimum inhibitory concentration: 4 µg/mL
Tetracycline
  minimum inhibitory concentration: 0.5 µg/mL
Chloramphenicol
  minimum inhibitory concentration: 4 µg/mL
Clindamycin
  minimum inhibitory concentration: 0.5 µg/mL
Gentamicin
  minimum inhibitory concentration: 2 µg/mL

## Lactobacillus acidophilus IM1477 (strain group: starter cultures)
Ampicillin
  minimum inhibitory concentration: 1 µg/mL
Neomycin
  minimum inhibitory concentration: 8 µg/mL
Erythromycin
  minimum inhibitory concentration: 0.12 µg/mL
Vancomycin
  minimum inhibitory concentration: 0.5 µg/mL
Kanamycin
  minimum inhibitory concentration: 64 µg/mL
Streptomycin
  minimum inhibitory concentration: 8 µg/mL
Tetracycline
  minimum inhibitory concentration: 1 µg/mL
Chloramphenicol
  minimum inhibitory concentration: 4 µg/mL
Clindamycin
  minimum inhibitory concentration: 4 µg/mL
Gentamicin
  minimum inhibitory concentration: 4 µg/mL

## Lactobacillus delbrueckii IM1092 (strain group: starter cultures)
Ampicillin
  minimum inhibitory concentration: 0.25 µg/mL
Neomycin
  minimum inhibitory concentration: 2 µg/mL
Erythromycin
  minimum inhibitory concentration: 0.06 µg/mL
Vancomycin
  minimum inhibitory concentration: 1 µg/mL
Kanamycin
  minimum inhibitory concentration: 16 µg/mL
Streptomycin
  minimum inhibitory concentration: 2 µg/mL
Tetracycline
  minimum inhibitory concentration: 1 µg/mL
Chloramphenicol
  minimum inhibitory concentration: 2 µg/mL
Clindamycin
  minimum inhibitory concentration: 0.06 µg/mL
Gentamicin
  minimum inhibitory concentration: 2 µg/mL

## Lactobacillus delbrueckii IM1112 (strain group: non-starter strains)
Ampicillin
  minimum inhibitory concentration: 0.5 µg/mL
Neomycin
  minimum inhibitory concentration: 8 µg/mL
Erythromycin
  minimum inhibitory concentration: 0.06 µg/mL
Vancomycin
  minimum inhibitory concentration: 1 µg/mL
Kanamycin
  minimum inhibitory concentration: 32 µg/mL
Streptomycin
  minimum inhibitory concentration: 4 µg/mL
Tetracycline
  minimum inhibitory concentration: 1 µg/mL
Chloramphenicol
  minimum inhibitory concentration: 1 µg/mL
Clindamycin
  minimum inhibitory concentration: 0.06 µg/mL
Gentamicin
  minimum inhibitory concentration: 2 µg/mL

## Lactobacillus delbrueckii IM1117 (strain group: non-starter strains)
Ampicillin
  minimum inhibitory concentration: 1 µg/mL
Neomycin
  minimum inhibitory concentration: 8 µg/mL
Erythromycin
  minimum inhibitory concentration: 0.12 µg/mL
Vancomycin
  minimum inhibitory concentration: 2 µg/mL
Kanamycin
  minimum inhibitory concentration: 32 µg/mL
Streptomycin
  minimum inhibitory concentration: 8 µg/mL
Tetracycline
  minimum inhibitory concentration: 2 µg/mL
Chloramphenicol
  minimum inhibitory concentration: 4 µg/mL
Clindamycin
  minimum inhibitory concentration: 0.12 µg/mL
Gentamicin
  minimum inhibitory concentration: 2 µg/mL

## Lactobacillus delbrueckii subsp. bulgaricus IM354 (strain group: probiotic strains)
Ampicillin
  minimum inhibitory concentration: 0.25 µg/mL
Neomycin
  minimum inhibitory concentration: 8 µg/mL
Erythromycin
  minimum inhibitory concentration: 0.5 µg/mL
Vancomycin
  minimum inhibitory concentration: 0.5 µg/mL
Kanamycin
  minimum inhibitory concentration: 64 µg/mL
Streptomycin
  minimum inhibitory concentration: 16 µg/mL
Tetracycline
  minimum inhibitory concentration: 2 µg/mL
Chloramphenicol
  minimum inhibitory concentration: 2 µg/mL
Clindamycin
  minimum inhibitory concentration: 0.25 µg/mL
Gentamicin
  minimum inhibitory concentration: 4 µg/mL

## Lactobacillus delbrueckii subsp. bulgaricus IM1401 (strain group: starter cultures)
Ampicillin
  minimum inhibitory concentration: 0.125 µg/mL
Neomycin
  minimum inhibitory concentration: 8 µg/mL
Erythromycin
  minimum inhibitory concentration: 0.03 µg/mL
Vancomycin
  minimum inhibitory concentration: < 0.25 µg/mL
Kanamycin
  minimum inhibitory concentration: 64 µg/mL
Streptomycin
  minimum inhibitory concentration: 16 µg/mL
Tetracycline
  minimum inhibitory concentration: 2 µg/mL
Chloramphenicol
  minimum inhibitory concentration: 4 µg/mL
Clindamycin
  minimum inhibitory concentration: 0.06 µg/mL
Gentamicin
  minimum inhibitory concentration: 2 µg/mL

## Lactobacillus delbrueckii subsp. bulgaricus IM1404 (strain group: starter cultures)
Ampicillin
  minimum inhibitory concentration: 0.125 µg/mL
Neomycin
  minimum inhibitory concentration: < 0.5 µg/mL
Erythromycin
  minimum inhibitory concentration: < 0.016 µg/mL
Vancomycin
  minimum inhibitory concentration: 0.5 µg/mL
Kanamycin
  minimum inhibitory concentration: 4 µg/mL
Streptomycin
  minimum inhibitory concentration: 1 µg/mL
Tetracycline
  minimum inhibitory concentration: 0.5 µg/mL
Chloramphenicol
  minimum inhibitory concentration: 2 µg/mL
Clindamycin
  minimum inhibitory concentration: < 0.03 µg/mL
Gentamicin
  minimum inhibitory concentration: < 0.5 µg/mL

## Lactobacillus gasseri IM656 (strain group: human intestinal mucosa or faeces)
Ampicillin
  minimum inhibitory concentration: 0.5 µg/mL
Neomycin
  minimum inhibitory concentration: 16 µg/mL
Erythromycin
  minimum inhibitory concentration: 0.06 µg/mL
Vancomycin
  minimum inhibitory concentration: 1 µg/mL
Kanamycin
  minimum inhibitory concentration: 64 µg/mL
Streptomycin
  minimum inhibitory concentration: 16 µg/mL
Tetracycline
  minimum inhibitory concentration: 4 µg/mL
Chloramphenicol
  minimum inhibitory concentration: 4 µg/mL
Clindamycin
  minimum inhibitory concentration: 2 µg/mL
Gentamicin
  minimum inhibitory concentration: 2 µg/mL
